Experimental data published in the supplement of paper PMC11417369.
Some of the results follow.

tested on: PfHDP1 homeodomain (GST-tagged); experiment: gcPBM binding intensity (ln(normalized median fluorescence intensity)); higher = stronger DNA binding
In short: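 GST-tagged P. falciparum DNA-binding domains, expressed in E. coli (about 25 μg on average), were applied for 1 h to an Agilent 4 × 180k array of primer-extended double-stranded 36-bp intergenic genomic probes plus negative controls. The binding buffer was 1× PBS with 1% milk, 0.2 mg/ml BSA, 0.5% salmon testes DNA and 0.03% Triton X-100. Bound protein was detected with Alexa488 anti-GST antibody and scanned at 488 nm. Binding intensity is the highest Masliner-normalised natural-log median intensity across replicate spots of either probe orientation.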

Sequence | gcPBM binding intensity (ln)
TCTTTAATGATGTGTACACAAGAAAACATTGTTAAG [CACACA_site5299] | 7.69
AAAAATAAGAGCGTAGCACACACGCATTTTATAAAT [CACACA_site8147] | 6.24
TAGAAGCATCATTTTACACACATGCAAATGTAAAAT [CACACA_site1893] | 6.82
ACATAAGAATTTTTATGTACTCATAATATTTTATAT [XGTACX_site2398] | 6.13
TACATACTAAAAAAATGTACTTGTATTGTTTTTTTA [XGTACX_site8357] | 6.06
GAAATATTTGTAAAAACATGCATGGTACTTTTAAAA [TGCATGCA_site6] | 6.77
TTTCTATATGGATTTGCACACATAAAAATGCTTATA [CACACA_site8751] | 10.2
TATATATATATATACACATGCAAAAATTTTTAATTT [TGCATGCA_site82] | 9.21
TTATTTAACGTATTCTCACACATATATATATATAAT [CACACA_site5226] | 6.75
TTTTTATTTTCATATGTGCACTTATATATATATATA | 10.2
TTTTTATATAAGAAAAAATTATAACAATTTGTTAAT [XGTACX_negctrl_site422] | 5.91
TTCGCTGTTTTAATTAGTACTTATATATAATATTAT [XGTACX_site1149] | 7.22
TATTGATATATATATATATATATATGTATATACTTA [GTGCAC_negctrl_site111] | 6.84
CTAAACCTTTTGAGCACACATATATATATATATATA [CACACA_site1782] | 9.43
AATAAAACATCATCATGTACAAAATTCGTCTTTGTA [XGTACX_site4821] | 5.78
AATTATATATAAAGAAGTACTATTTCAAGGAGTTTT [XGTACX_site3837] | 6.34
TCAAATTTTCAACATTGTACATAAATGTATAAATAT [XGTACX_site6042] | 6.43
CAAAATATATATGACACACACAAAAAAAGTATATTA [CACACA_site1589] | 6.61
TATTATTATATATATAGTACATAAAATATAAAAAAA [XGTACX_site2060] | 6.35
ATGTCACAATTTTTCACACACAAAATTTAAATACAT [CACACA_site5168] | 6.73
GCATTATTATATATTTGTACATATTTTTTTTTAAAA [XGTACX_site5436] | 7.07
TAATTATGCGGACACACACACACACCCAACTAAAAA [CACACA_site5427] | 6.81
TTTTTTTTTTAAATGTGTCCTCATTATAATATATGT [XGTACX_site5331] | 6.24

Sequence | gcPBM binding intensity (ln)
TTTTTTAAATTATATTATAGCAAATAAATATTAAAA [CACACA_negctrl_site1655] | 6.06
GGCTAAAAGTTGCACACACACAAAAAAAAAAAAAAA [CACACA_site7531] | 9.9
TATTTGTTCTGATCCTTTTATTCAACTTTTTTTTTT [CACACA_negctrl_site978] | 6.5
ACCTTAATTATAATAACACACGAAAAGTGGACACAT [CACACA_site1750] | 7.4
AAATTTTAATTAGACTGTACACATTTTAGAATAATT [XGTACX_site4819] | 6.17
TTTTATGTTTTAAAATGTACGTGTCAATGAATAAGT [XGTACX_site6239] | 6.97
TATTATAGTCCGACTTTTTAATTTCTTTATTGTTTT [CACACA_negctrl_site1381] | 6.18
TGAATATTCATATGCACACAAATTAATATACATAAT [CACACA_site442] | 10.3
TTTTATTTTTAAAATTGTACATTATTATTGTTATTT [XGTACX_site1439] | 6.3
TTTAGATAATTCATTACACACATGTATATATATATA [CACACA_site3483] | 9.02
TAAGGAAGAAGAAAAAGTACTAAAGGTATAAATGCG [XGTACX_site2628] | 6.61
AAAAAAAAGTTGTAAGTGCATGTATATAATAATATT | 7.47
TGATCACATAATAAATGTACAAAAAAAAATTAATAA [XGTACX_site5867] | 6.43
AACTTGTATATATACACACACACACTGTCTTTTTTT [CACACA_site1963] | 7.26
AGAACTTAATGCTGCACACAAAAAAAAGGAAAAATA [CACACA_site1353] | 7.56
TTCTTTAAAATGATATACGTTATAAATATATATATA [XGTACX_negctrl_site256] | 8.24
TATATATAATATAGTGCATGTAAAAAATAAACCATG [TGCATGCA_site932] | 7.52
TATATATATGGACACACACACATATATATATATTTT [CACACA_site5409] | 6.75
AAAATTAATATCTTGGTGCATTTTTTAATATTATTA [GTGCAC_site9638] | 9.54
ACAACTATTCATCATAGTACACGCATGATATATATA [XGTACX_site1539] | 6.42
TATCTTACTTTTTGCACACACTAATATTATTGTTTA [CACACA_site4990] | 11.1
TATAAATTAAAACATTGTACATTTTTATTATTATGT [XGTACX_site579] | 6.2
CAATTTATAAAGAAAACACACATATACATAAATACA [CACACA_site4829] | 6.93

Sequence | gcPBM binding intensity (ln)
AAAATTTCTTATTTTGTACACACAATAAATATTCAC [CACACA_site8464] | 6.42
TTTTTGTTATTTTTAGTGCAGAAGAATAAATTTTAA | 7.57
GCAACCTTGTGCAAATGTACAAAAAAAAAAAAAAAA [XGTACX_site679] | 10.3
TTTTTATTGTTGCTATATTTATAACAATTTATCATA [GTGCAC_negctrl_site75] | 6.6
AAAAAAAAAATATATTGTACAATATTGTAGCTATAT [XGTACX_site7180] | 6.52
TTCAATAGTAAGTATACACACATATAAATAAATAAA [CACACA_site7295] | 6.91
AAAATTTGAAAAAGGGGTACTTAATAAAAGTTTCAT [XGTACX_site932] | 6.1
TTACACAAGGATAAAAACATATGTATGATTATATAT [CACACA_negctrl_site654] | 6.7
ATACTGTATAGTCGCACACAAAAATATAAAATATTT [CACACA_site6004] | 6.65
CTACATATGTATAATATGCACACGTCATTTTCCCCT [CACACA_site2107] | 9.15
AATTATCAGGAATGATGTACTGAAATAAAAAAAAAA [XGTACX_site3280] | 6.19
CACAGACACCCATACACACACATACCCATATATATA [CACACA_site5023] | 7.23
ATTTTATTTAAATACACACACATATATATATTATAT [CACACA_site4607] | 7.14
AAAAAAAAAAAAAAAGCACACATCATATTTTAATTC [CACACA_site9109] | 6.5
ACACAAAAATGAAAAATGAAAAGGGTAATATATATA [CACACA_negctrl_site1490] | 7.18
AATAGAAATTATATAAACATAAATGAATAAATAAAT [CACACA_negctrl_site1817] | 6.01
ACCATATATTAAAAAGTGCATTAAATATATAAATAT [GTGCAC_site9443] | 8.38
AGTATTATTTACTGCGCATGCTATTTATATATATTA [TGCATGCA_site876] | 6.83
AATTAAATGGATAAATGTACATATGTGAATATATTT [XGTACX_site84] | 6.94
TTTTTCTTTGAATAAATACACACGAGAAATGAAAGT [CACACA_site1688] | 7.23
AAAAGGAGCAAATACAAAAAAATGAACAAAAAAAAA [CACACA_negctrl_site716] | 6.64
TTTTGTAATGCTTTTTTTTTTTTTTTTTTTTTTTTT [CACACA_negctrl_site932] | 7.22
CATACCTATAGACACACACACACACGCACGCACAAA [CACACA_site6374] | 7.6

Sequence | gcPBM binding intensity (ln)
ACATAGATCATAGGTTGTACGAAGGTATCCTTTATT [XGTACX_site694] | 6.18
TCATATATATATATATGTACATATTTATGTATGTAT [XGTACX_site6291] | 6.43
ACTTTTTGAATGTTTGCACACAAATCTCATAATTTT [CACACA_site358] | 10.3
ATAATTAACAAATACACACACACACCCAGACAAAAA [CACACA_site4445] | 7.14
TGTGTATATATAAATACACACCAAATGTTAATATAT [CACACA_site8501] | 6.66
AACAATTAGAATAACGCATGCATTTATAATATAGAA [TGCATGCA_site595] | 6.67
TTAAAAGAAAATAGGTGTACACATAATATATACATA [XGTACX_site7697] | 6.8
AAAATATTAAATATGTGTACATATAATAGTTCAATG [XGTACX_site5957] | 6.41
AAACAAATAAAAATATGTACACATTTTTTCATTATG [XGTACX_site5449] | 6.35
AATATGTCTTAAAAAAGTACATAAATTTTAACTTCA [XGTACX_site6670] | 5.6
TTTTTAATCATAATATGTACATATAAAAATGGTTTG [XGTACX_site3996] | 6.47
TAATAAATCAAATGCACACACACAAAAAAAAAAAAA [CACACA_site161] | 10
TTTTTATTTTTTTATGCATGTGATGAAACGTGCCTA [TGCATGCA_site141] | 7.89
AGAATATATAAGTATACACACATATATATATATATA [CACACA_site201] | 9.34
ATATCGAAAATTTGGTGTACATTTTTATTTGTTCAA [XGTACX_site3094] | 6.53
TTATAAATATTCACTGTGCACTGATGGAATATAAAT [GTGCAC_site9739] | 10
TATAAAATAATTAAATGTACATAATATATAAAATAT [XGTACX_site6777] | 6.69
GATATTACGTGTTTGGTATTTTTTGATGTTAATAGG [CACACA_negctrl_site105] | 6.97
ATTAATTAAAATAGTTGTACAATCAAAAAAACAAAA [XGTACX_site7660] | 7.47
AACAAAGAGAAATAAACACACACAAAATAAAGAAAA [CACACA_site8704] | 7.01
